The densities may have been worked out from excess volumes.
Assay: xn = mol fraction of the nth substance listed
Settings: 100 kPa

CC(=O)[O-].CC[n+]1ccn(C)c1 + O
Settings | mass density [kg/m3]
298.15 K, x1 = 0.0499 | 1041
298.15 K, x1 = 0.1515 | 1089
298.15 K, x1 = 0.1944 | 1096
298.15 K, x1 = 0.2487 | 1103
298.15 K, x1 = 0.2966 | 1104
298.15 K, x1 = 0.3896 | 1104
298.15 K, x1 = 0.4844 | 1103
298.15 K, x1 = 0.5796 | 1102
298.15 K, x1 = 0.6809 | 1101
298.15 K, x1 = 0.7657 | 1100
298.15 K, x1 = 0.8622 | 1099
298.15 K, x1 = 0.946 | 1098
303.15 K, x1 = 0.1055 | 1071
303.15 K, x1 = 0.1944 | 1092
303.15 K, x1 = 0.2487 | 1099
303.15 K, x1 = 0.2966 | 1101
303.15 K, x1 = 0.3896 | 1101
303.15 K, x1 = 0.5796 | 1099
303.15 K, x1 = 0.7657 | 1097
303.15 K, x1 = 0.946 | 1095
308.15 K, x1 = 0.0499 | 1036
308.15 K, x1 = 0.1055 | 1067
308.15 K, x1 = 0.1515 | 1082
308.15 K, x1 = 0.2966 | 1098
308.15 K, x1 = 0.3896 | 1098
308.15 K, x1 = 0.4844 | 1097
308.15 K, x1 = 0.5796 | 1096
308.15 K, x1 = 0.6809 | 1095
308.15 K, x1 = 0.7657 | 1094
308.15 K, x1 = 0.946 | 1092
313.15 K, x1 = 0.0499 | 1033
313.15 K, x1 = 0.1055 | 1064
313.15 K, x1 = 0.1515 | 1078
313.15 K, x1 = 0.2966 | 1095
313.15 K, x1 = 0.3896 | 1095
313.15 K, x1 = 0.4844 | 1094
313.15 K, x1 = 0.6809 | 1092
313.15 K, x1 = 0.7657 | 1091
318.15 K, x1 = 0.0499 | 1031
318.15 K, x1 = 0.1055 | 1061
318.15 K, x1 = 0.1515 | 1075
318.15 K, x1 = 0.1944 | 1082
318.15 K, x1 = 0.2487 | 1090
318.15 K, x1 = 0.2966 | 1092
318.15 K, x1 = 0.3896 | 1092
318.15 K, x1 = 0.4844 | 1091
318.15 K, x1 = 0.7657 | 1088
318.15 K, x1 = 0.8622 | 1087
318.15 K, x1 = 0.946 | 1086
323.15 K, x1 = 0.2487 | 1086
323.15 K, x1 = 0.2966 | 1089
323.15 K, x1 = 0.3896 | 1089
323.15 K, x1 = 0.4844 | 1088
323.15 K, x1 = 0.5796 | 1087
323.15 K, x1 = 0.6809 | 1086
323.15 K, x1 = 0.7657 | 1085
328.15 K, x1 = 0.0499 | 1024
328.15 K, x1 = 0.1515 | 1068
328.15 K, x1 = 0.1944 | 1075
328.15 K, x1 = 0.2966 | 1086
328.15 K, x1 = 0.3896 | 1086
328.15 K, x1 = 0.4844 | 1085
328.15 K, x1 = 0.5796 | 1084
328.15 K, x1 = 0.6809 | 1083
328.15 K, x1 = 0.8622 | 1081
328.15 K, x1 = 0.946 | 1080
333.15 K, x1 = 0.0499 | 1019
333.15 K, x1 = 0.1055 | 1051
333.15 K, x1 = 0.1515 | 1065
333.15 K, x1 = 0.1944 | 1072
333.15 K, x1 = 0.2487 | 1080
333.15 K, x1 = 0.2966 | 1082
333.15 K, x1 = 0.3896 | 1083
333.15 K, x1 = 0.4844 | 1082
333.15 K, x1 = 0.6809 | 1080
333.15 K, x1 = 0.7657 | 1079
333.15 K, x1 = 0.946 | 1077
338.15 K, x1 = 0.0499 | 1015
338.15 K, x1 = 0.1055 | 1047
338.15 K, x1 = 0.1515 | 1061
338.15 K, x1 = 0.1944 | 1069
338.15 K, x1 = 0.2487 | 1077
338.15 K, x1 = 0.3896 | 1079
338.15 K, x1 = 0.4844 | 1079
338.15 K, x1 = 0.5796 | 1078
338.15 K, x1 = 0.7657 | 1076
338.15 K, x1 = 0.946 | 1074
343.15 K, x1 = 0.0499 | 1008
343.15 K, x1 = 0.1055 | 1044
343.15 K, x1 = 0.1944 | 1065
343.15 K, x1 = 0.2487 | 1074
343.15 K, x1 = 0.2966 | 1076
343.15 K, x1 = 0.3896 | 1076
343.15 K, x1 = 0.4844 | 1076
343.15 K, x1 = 0.5796 | 1075
343.15 K, x1 = 0.7657 | 1073
348.15 K, x1 = 0.0499 | 1010
348.15 K, x1 = 0.1055 | 1041
348.15 K, x1 = 0.1515 | 1054
348.15 K, x1 = 0.1944 | 1061
348.15 K, x1 = 0.2487 | 1070
348.15 K, x1 = 0.2966 | 1073
348.15 K, x1 = 0.3896 | 1073
348.15 K, x1 = 0.6809 | 1071
348.15 K, x1 = 0.7657 | 1070
348.15 K, x1 = 0.8622 | 1069
348.15 K, x1 = 0.946 | 1068

From a compilation of properties of binary mixtures (doi:10.1021/acs.jced.1c00349)
